According to a compilation of properties of binary mixtures (doi:10.1021/je060497d):
The densities may have been worked out from excess volumes.

Assay: xn = mol fraction of the nth substance listed
Settings: 101 kPa

COS(=O)(=O)[O-].Cn1cc[n+](C)c1 + CCC(C)=O
mass density [kg/m3]
Settings | x1 = 0.0006 | x1 = 0.0012 | x1 = 0.0029 | x2 = 0 | x2 = 0.0257 | x2 = 0.0716 | x2 = 0.2017 | x2 = 0.2926
293.15 K | 806.5 | – | 809.5 | 1330.9 | 1323.5 | 1310.6 | 1273.8 | 1244
298.15 K | 800.7 | 801.5 | – | – | – | 1307.1 | 1270.1 | 1240.3
303.15 K | – | 796.7 | 799.1 | 1323.7 | – | – | 1266.4 | 1236.5

CCC(C)=O + COS(=O)(=O)[O-].Cn1cc[n+](C)c1
x1 = 1
Settings | mass density [kg/m3]
293.15 K | 805.6
303.15 K | 794.9

CCCC[n+]1ccn(C)c1.F[P-](F)(F)(F)(F)F + CCOC(C)=O
mass density [kg/m3]
Settings | 293.15 K | 298.15 K | 303.15 K
x2 = 0 | 1371.6 | 1367.3 | 1363
x2 = 0.0501 | 1361.5 | 1357.3 | 1352.9
x2 = 0.1003 | 1350.6 | 1346.3 | –
x2 = 0.1854 | 1330.9 | 1326.6 | 1322.2
x2 = 0.3 | – | 1297 | 1292.6
x2 = 0.4064 | 1268.7 | 1264.7 | 1260.3
x2 = 0.5117 | 1230.7 | – | –
x2 = 0.6032 | 1191.4 | 1186.8 | 1182
x2 = 0.7061 | 1138.2 | – | –
x2 = 0.802 | 1077.6 | 1072.2 | 1067
x2 = 0.9021 | – | 993.4 | 987.7
x2 = 0.948 | – | 950.6 | 944.6

CCOC(C)=O + COS(=O)(=O)[O-].Cn1cc[n+](C)c1
x1 = 1
Settings | mass density [kg/m3]
293.15 K | 900.5
303.15 K | 888.2

CCOC(C)=O + CCCC[n+]1ccn(C)c1.F[P-](F)(F)(F)(F)F
Settings | mass density [kg/m3]
293.15 K, x1 = 1 | 900.5

CC(C)O + COS(=O)(=O)[O-].Cn1cc[n+](C)c1
x1 = 1
Settings | mass density [kg/m3]
293.15 K | 785
303.15 K | 776.6

CCCC[n+]1ccn(C)c1.F[P-](F)(F)(F)(F)F + CCC(C)=O
mass density [kg/m3]
Settings | 293.15 K | 298.15 K | 303.15 K
x2 = 0 | 1371.6 | 1367.3 | 1363
x2 = 0.0509 | 1359.7 | 1355.5 | –
x2 = 0.0987 | 1348.3 | 1344 | 1339.7
x2 = 0.1907 | 1323.9 | 1319.8 | –
x2 = 0.2915 | 1293.9 | 1289.8 | 1285.5
x2 = 0.4057 | 1254.1 | 1250.1 | 1245.7
x2 = 0.5074 | 1211.6 | 1207.3 | 1203
x2 = 0.5956 | – | – | 1159
x2 = 0.7008 | – | – | 1095.3
x2 = 0.7919 | 1036.2 | 1031.3 | 1026.8
x2 = 0.8942 | 938.8 | 934 | 929.1
x2 = 0.9467 | – | 872.6 | 867.6

CCOC(C)=O + CCCCCCCC[n+]1ccn(C)c1.F[P-](F)(F)(F)(F)F
x1 = 1
Settings | mass density [kg/m3]
298.15 K | 894.4
303.15 K | 888.2

CCCCCC[n+]1ccn(C)c1.F[P-](F)(F)(F)(F)F + CC(C)O
mass density [kg/m3]
Settings | x1 = 0.0011 | x1 = 0.0019 | x1 = 0.0024 | x2 = 0 | x2 = 0.0067 | x2 = 0.074 | x2 = 0.189 | x2 = 0.3042 | x2 = 0.3877 | x2 = 0.5107
293.15 K | 787 | – | – | – | 1296.2 | 1283.9 | 1261.8 | 1236 | – | –
298.15 K | 782.8 | 784.2 | 785.4 | 1293.7 | 1292.2 | 1279.9 | 1257.7 | 1232 | – | 1168.7
303.15 K | 778.5 | 780 | 781.1 | 1289.6 | 1288.3 | – | 1253.8 | 1227.9 | 1205.3 | 1164.6

CC(C)O + CCCC[n+]1ccn(C)c1.F[P-](F)(F)(F)(F)F
x1 = 1
Settings | mass density [kg/m3]
293.15 K | 785
303.15 K | 776.6
